Experimental data published in PubChem BioAssay AID1345083 (National Center for Advancing Translational Sciences (NCATS), 2018).
Out of some 94,000 compounds screened, about 6,200 (6.6%) were called active. Inconclusive results, whose numbers are uncertain, are shown with a selection of clear calls. The call rests on the fitted dose curve; in most records, active means well fitted inhibition curve with a large enough effect; inconclusive means small, poorly fitted or top-dose-only effect; inactive means flat fitted curve, though single readings scatter. A potency beside an inconclusive call is a rough fit, not a confirmed value.

assay: Cytotoxic Profiling in HEK 293 Cell Line of Diverse Libraries Using Quantitative High-Throughput Screening; details: HEK 293 viability, ATP luminescence (CellTiter-Glo), 48-72 h; series mostly up to 115 µM; further: nearly all actives have a fitted effect of over 60% in size
Outline: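 ATP-coupled CellTiter-Glo luminescence served as viability read-out, recorded 10 min after reagent addition at room temperature. HEK 293 cells, 250 cells/well, had been incubated with pintool-transferred compound for 48 or 72 hr at 37 degree Celsius.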
Potency means the concentration at half of the fitted maximal effect; tags describe the fitted curve by direction and shape.

Row | Compound | Potency
1 | Cc1cccc(CN2CCCC(O)(CNCc3cccc(C)n3)C2=O)c1 (centres undefined) | inactive
2 | O=C(c1ccc(F)cc1)N1CCCC(c2nn(-c3ccc(Cl)cc3)c(=O)[nH]2)C1 (centres undefined) | inconclusive: 79.4 µM [inhibitor, partial curve]
3 | CCC(=O)N1CCN(c2nc3c(s2)CC(C(=O)Nc2ccc(F)cc2)CC3)CC1 (centres undefined) | active: 12.6 µM
4 | CCOC(=O)N1CCC(n2ccnc2-c2cc3n(n2)CCNC3)CC1 | inactive
5 | COc1ccc(NC(=O)C2CCN(C(=O)c3ncn4c3COC(c3ccccc3)C4)CC2)cc1OC (centres undefined) | inactive
6 | CCOC(=O)C1(Cc2ccccc2F)CCCN(C(=O)c2cccc(C(=O)OC)c2)C1 (centres undefined) | inconclusive: 56.2 µM [inhibitor, partial curve, poor fit]
7 | CN1C(=O)C(c2ccccc2)CC12CCN(C(=O)CNC(N)=O)CC2 (centres undefined) | inactive
8 | COc1cc(=O)n2c(c1C(=O)NC1CCCCCCC1)CCCC2 | inactive
9 | COc1cccc(S(=O)(=O)N2CCC(Oc3ccc(C(N)=O)cn3)CC2)c1 | inconclusive: 44.7 µM [inhibitor, partial curve, poor fit]
10 | O=C(NCCN1CCCCC1)C1CCCN(c2cnc3nccnc3c2)C1 (centres undefined) | inactive
11 | CC1(c2ccccc2)N(Cc2cccnc2)C(=O)OC12CCN(C(=O)c1ccc(F)cc1)CC2 (centres undefined) | inactive
12 | O=S1(=O)NC2(CCCN(Cc3ccc(F)cc3)C2)COc2ccccc21 (centres undefined) | inconclusive: 50.1 µM [inhibitor, partial curve, poor fit]
13 | Cc1noc([C@@H]2CN(C3CCCC3)C[C@H]2CO)n1 | inactive
14 | COc1ccc2[nH]c(C[C@@H]3C[C@@H](C(C)C)[C@H](CNC(=O)C4CCC4)C=C3C)nc2n1 | active: 44.7 µM
15 | CCCN(CC1CCOC1)S(=O)(=O)c1cccc(C)c1 (centres undefined) | inconclusive: 35.5 µM [inhibitor, partial curve]
16 | COc1cc(Cl)ccc1OCc1nnc(C(=O)N2CCC[C@@H]2c2cccc(F)c2)n1-c1ccccc1 | inconclusive: 50.1 µM [inhibitor, partial curve, poor fit]
17 | COC[C@@H]1CN(c2cnccn2)C[C@H]1C(=O)NCc1ccc(C)c(C)c1 | inconclusive: 89.1 µM [inhibitor, single point]
18 | Cc1noc(C)c1[S+](=O)([O-])N1CCN(C(=O)c2nc3cccnc3n(C3CC3)c2=O)CC1 | inactive
19 | CC(C)CN1C(=O)COC[C@@H]1[C@H](O)c1ccc(NC(=O)CCc2ccccc2)cc1 | inactive
20 | CCN1C(=O)C2(CCN(C(=O)NCCC(C)C)CC2)c2ccccc21 | inactive
21 | COc1ccc(C(=O)N2CCC3(CC2)C(OC)C(=O)N3c2cccc(F)c2)cn1 (centres undefined) | inactive
22 | COc1ccc(-c2ccc3nnc(CNC(=O)c4cc(Cl)ccc4F)n3n2)cc1 | inconclusive: 56.2 µM [inhibitor, partial curve, poor fit]

Row | Compound | Potency
23 | O=C(COc1ccccc1)Nc1ccc([C@@H](O)[C@H]2COCC(=O)N2CCCc2ccccc2)cc1 | active: 79.4 µM
24 | Cc1cc(C(=O)N2CCCC(c3noc(COc4ccccc4)n3)C2)nn1C (centres undefined) | inconclusive: 56.2 µM [inhibitor, partial curve, poor fit]
25 | CCOC(=O)C(Cc1cccc(N2CC(Oc3ccccc3Cl)C2)c1F)OC (centres undefined) | inconclusive: 56.2 µM [inhibitor, partial curve, poor fit]
26 | CC1(CCCCc2ccccc2)COc2ccc(C(=O)Nc3cccnc3)cc2N1 (centres undefined) | inconclusive: 44.7 µM [inhibitor, partial curve, poor fit]
27 | Cc1noc(C)c1[S+](=O)([O-])N(C)Cc1cccn1C | inactive
28 | O=C1CO[C@H]2CCN(Cc3ccncc3)CC[C@@H]2N1Cc1c[nH]c2ccccc12 | inconclusive: 112 µM [inhibitor, partial curve, poor fit]
29 | COCCOc1ncccc1-c1noc([C@@H]2CCCN2Cc2ccc(OC)cc2)n1 | active: 100 µM
30 | Cn1ncc2c(C(=O)NC3CC3)cc(C(C)(C)C)nc21 | inactive
31 | CO[C@H]1C[C@@H](O)C12CCN(C(=O)Cn1cc(C)c(=O)[nH]c1=O)CC2 | inactive
32 | COc1cccc(CN2Cc3nc(OCc4ccc(F)cc4)ccc3OCC2=O)c1 | active: 100 µM
33 | Cc1ccc(NC(=O)c2cc3cn(C(C)C)cc3s2)c(C)c1 | inconclusive: 79.4 µM [inhibitor, partial curve, poor fit]
34 | O=C(CC[C@@H]1CNC(=O)[C@@H]2C[C@H](NC(=O)Nc3cccc(Cl)c3)CN12)NCc1ccccc1 | inactive
35 | Cc1ccc(C(=O)N2CCc3nc(C)nc(-c4ccc(Cl)cc4)c3CC2)cc1 | inconclusive: 56.2 µM [inhibitor, partial curve, poor fit]
36 | O=C(c1ccc(C(F)(F)F)cc1)N1CCCC(C(=O)N2CCC(N3Cc4cccn4C3=O)CC2)C1 (centres undefined) | inconclusive: 89.1 µM [inhibitor, single point]
37 | O=[S+]1([O-])N(c2ccccc2)C[C@@H](O)[C@]12CCN(Cc1ccc(C(F)(F)F)nc1)C2 | inconclusive: 20 µM [inhibitor, full curve, poor fit]
38 | CC(=O)NCCNC[C@@H]1C=C(C)[C@H](Cc2nnc(-c3ccc(C)cc3)o2)C[C@H]1C(C)C | active: 56.2 µM
39 | COc1ccc(-c2cn3cc(C(=O)NCCN4CCOCC4)nc3s2)cc1 | inactive
40 | O=C(NC[C@H]1O[C@@H](Cc2nc(-c3ccc(OC(F)(F)F)cc3)no2)[C@H](O)[C@@H]1O)C1CC1 | inconclusive: 17.8 µM [inhibitor, full curve, poor fit]
41 | COC(=O)c1ccc(CN2C[C@@H]3C(C)(C)COc4ccc(OC)cc4[C@]3(CO)C2)cc1 | inconclusive: 35.5 µM [inhibitor, partial curve, poor fit]
42 | CN(C)C(=O)c1ccc(-c2cccc(-c3ccn(CC4CC4)n3)c2)o1 | inconclusive: 25.1 µM [inhibitor, full curve, poor fit]
43 | CN1CCCC1c1nc(C2CN(C(=O)CCCc3nc4ccccc4[nH]3)C2)no1 (centres undefined) | inactive
44 | COCc1ccc2c(c1)c(OC(C)(C)C(=O)N1CCOCC1)nn2Cc1cccnc1 | inactive
